Relative cell viability data for twelve molecules are collected here from the supplement of paper PMC12355420.

Structures can show the parent of a compound that is named as a salt. This is one part of the list. Many values rest on one well or one pass, so single values are uncertain.
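Also: primary screen of an FDA-approved drug library in HeLa reporter cells in 96-well format, CellMask signal normalized to DMSO-treated wells set as 1, under 0.5 deemed highly cytotoxic.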

The assay relates to HeLa VPS33A reporter cells. Put plainly: relative cell viability (CellMask signal) vs DMSO (fraction of DMSO); HeLa model of a glycosaminoglycan (GAG) storage disease; KI is knock-in and KO knock-out; SDC1 is syndecan 1; higher = less cytotoxic. Particulars: 50 µM; 24 h.
In turn, `CN1CCN(C2=Nc3ccccc3Oc3ccc(Cl)cc32)CC1` [Loxapine Succinate] returned a relative cell viability of 0.00664. The figure for `COCCCC/C(=N\OCCN)c1ccc(C(F)(F)F)cc1` [Fluvoxamine maleate] is 0.00277. The figure for `Nc1ccc(O)cc1` [4-Aminophenol] is 0.00382; for `Clc1ccc(C(Cn2ccnc2)OCc2csc3c(Cl)cccc23)c(Cl)c1` (configuration not stated) [Sertaconazole nitrate] it is 0.00422. Molecule `CC1(C)CCC(CN2CCN(c3ccc(C(=O)NS(=O)(=O)c4ccc(NCC5CCOCC5)c([N+](=O)[O-])c4)c(Oc4cnc5[nH]ccc5c4)c3)CC2)=C(c2ccc(Cl)cc2)C1` gave a relative cell viability of 0.0223. The figure for `N=C(NCCCCCCNC(=N)NC(=N)Nc1ccc(Cl)cc1)NC(=N)Nc1ccc(Cl)cc1` [Chlorhexidine HCl] is 0.0162; for `CC1CC(OC(=O)C(O)c2ccccc2)CC(C)(C)C1` (configuration not stated) [Cyclandelate] it is 0.0181. Under `Clc1ccccc1C(c1ccccc1)(c1ccccc1)n1ccnc1` [Clotrimazole] stands 0.00394; under `CCC[C@H](NC(=O)[C@@H]1[C@H]2CCC[C@H]2CN1C(=O)[C@@H](NC(=O)[C@@H](NC(=O)c1cnccn1)C1CCCCC1)C(C)(C)C)C(=O)C(=O)NC1CC1` [Telaprevir (VX-950)], 0.247; under `CC(C)Oc1ccc(-c2nc(-c3cccc4c3CC[C@@H]4NCCO)no2)cc1C#N` [Ozanimod (RPC1063)], 0.00696. Under `COC1=C(OC)C(=O)C(CCCCCCCCCCO)=C(C)C1=O` [Idebenone] stands 0.00522; under `O=C(/C=C\n1cnc(-c2cc(C(F)(F)F)cc(C(F)(F)F)c2)n1)NNc1cnccn1`, 0.036.
